Measured values as given in patent publication US10889573B2, “Anthelmintic quinoline-3-carboxamide derivatives” (Bayer Animal Health GMBH, priority 2016, dated 2021).
Some results were stated once for a whole list of compounds, not compound by compound. For at least one compound, name, drawing or mass did not settle the structure.

target: C. elegans Slo-1a (Caenorhabditis elegans, UniProt Q95V25); details: CHO cells expressing C. elegans Slo-1a, voltage sensitive dye
Sequence (Q95V25 whole entry): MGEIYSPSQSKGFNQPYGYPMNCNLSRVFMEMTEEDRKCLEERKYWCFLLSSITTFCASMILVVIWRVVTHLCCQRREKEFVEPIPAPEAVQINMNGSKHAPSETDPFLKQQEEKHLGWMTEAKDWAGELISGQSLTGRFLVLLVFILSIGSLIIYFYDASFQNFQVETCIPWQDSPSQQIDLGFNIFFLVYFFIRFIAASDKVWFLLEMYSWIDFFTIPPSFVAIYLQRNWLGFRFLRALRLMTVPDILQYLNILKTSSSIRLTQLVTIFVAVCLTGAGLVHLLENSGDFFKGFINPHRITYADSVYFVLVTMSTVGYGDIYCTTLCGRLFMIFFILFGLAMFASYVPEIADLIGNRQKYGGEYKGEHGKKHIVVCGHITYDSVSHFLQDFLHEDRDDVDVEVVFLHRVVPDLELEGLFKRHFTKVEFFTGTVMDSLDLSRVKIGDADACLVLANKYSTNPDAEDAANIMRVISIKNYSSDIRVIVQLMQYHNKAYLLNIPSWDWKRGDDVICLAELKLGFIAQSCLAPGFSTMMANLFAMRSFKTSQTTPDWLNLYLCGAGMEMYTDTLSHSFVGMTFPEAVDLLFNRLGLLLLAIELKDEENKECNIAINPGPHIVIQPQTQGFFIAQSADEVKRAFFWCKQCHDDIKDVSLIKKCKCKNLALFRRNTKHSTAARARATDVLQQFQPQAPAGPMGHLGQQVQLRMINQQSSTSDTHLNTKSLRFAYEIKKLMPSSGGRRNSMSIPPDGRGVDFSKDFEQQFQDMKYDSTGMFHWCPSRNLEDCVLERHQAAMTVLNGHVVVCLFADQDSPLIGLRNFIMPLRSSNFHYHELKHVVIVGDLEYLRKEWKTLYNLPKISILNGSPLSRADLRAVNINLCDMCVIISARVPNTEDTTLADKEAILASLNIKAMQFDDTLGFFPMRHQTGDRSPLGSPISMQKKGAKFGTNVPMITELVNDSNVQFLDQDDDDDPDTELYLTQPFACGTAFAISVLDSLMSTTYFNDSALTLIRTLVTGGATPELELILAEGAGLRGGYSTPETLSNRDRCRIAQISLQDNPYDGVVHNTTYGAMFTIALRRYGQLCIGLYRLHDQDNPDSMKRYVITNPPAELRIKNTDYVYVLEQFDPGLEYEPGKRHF

| Compound | pE50 (negative decadic logarithm of EC50) |
| --- | --- |
| CN(C)c1c(C(=O)N[C@H]2CCOc3ccccc32)cnc2c(-c3cccc(Cl)c3F)cccc12 [Example 51] | > 8,5 |
| O=C(N[C@H]1CCOc2ccccc21)c1cnc2c(-c3cc(Cl)c(F)c(Cl)c3)cccc2c1N1CCOCC1 [Example 54] | > 8,5 |
| COc1ccc(-c2cccc3c(N(C)C)c(C(=O)N[C@H]4CCOc5ccccc54)cnc23)cc1F [Example 55] | 7,5-8,5 |
| Cc1ccc(-c2cccc3c(N(C)C)c(C(=O)N[C@H]4CCOc5ccccc54)cnc23)cc1Cl [Example 56] | > 8,5 |
| CN(C)c1c(C(=O)N[C@H]2CCOc3ccccc32)cnc2c(-c3cc(F)c(F)cc3F)cccc12 [Example 57] | > 8,5 |
| Nc1c(C(=O)N[C@H]2CCOc3ccccc32)cnc2c(-c3cc(Cl)cc(Cl)c3)cccc12 [Example 58] | 7,5-8,5 |
| CN(C)c1c(C(=O)N[C@H]2CCOc3ccccc32)cnc2c(-c3cccc(F)c3Cl)cccc12 [Example 60] | > 8,5 |
| Cc1cc(F)cc(-c2cccc3c(N(C)C)c(C(=O)N[C@H]4CCOc5ccccc54)cnc23)c1 [Example 61] | > 8,5 |
| CN(C)c1c(C(=O)N[C@H]2CCOc3ccccc32)cnc2c(-c3ccnc(F)c3)cccc12 [Example 63] | 7,5-8,5 |
| CN(C)c1c(C(=O)N[C@H]2CCOc3ccccc32)cnc2c(-c3ccnc(Cl)c3)cccc12 [Example 65] | 7,5-8,5 |
| Cc1cc(-c2cccc3c(N(C)C)c(C(=O)N[C@H]4CCOc5ccccc54)cnc23)cc(C)n1 [Example 66] | 7,5-8,5 |
| O=C(N[C@H]1CCOc2ccccc21)c1cnc2c(-c3cc(Cl)cc(Cl)c3)cccc2c1-n1cc(C(F)(F)F)cn1 [Example 68] | 6,5-7,5 |
| O=C(N[C@H]1CCc2ccccc21)c1cnc2c(-c3cc(Cl)cc(Cl)c3)cccc2c1Nc1cn[nH]c1 [Example 69] | 6,5-7,5 |
| CN(C)c1cccc(-c2cccc3c(N(C)C)c(C(=O)N[C@H]4CCOc5ccccc54)cnc23)c1 [Example 70] | > 8,5 |
| O=C(N[C@H]1CCOc2ccccc21)c1cnc2c(-c3cc(Cl)cc(Cl)c3)cccc2c1-n1cccn1 [Example 72] | > 8,5 |
| O=C(N[C@H]1CCOc2ccccc21)c1cnc2c(-c3cc(Cl)cc(Cl)c3)cccc2c1NCCO [Example 74] | 7,5-8,5 |
| COCCN(C)c1c(C(=O)N[C@H]2CCOc3ccccc32)cnc2c(-c3cc(Cl)cc(Cl)c3)cccc12 [Example 75] | > 8,5 |
| COCCNc1c(C(=O)N[C@H]2CCOc3ccccc32)cnc2c(-c3cc(Cl)cc(Cl)c3)cccc12 [Example 76] | > 8,5 |
| O=C1CN(c2c(C(=O)N[C@H]3CCOc4ccccc43)cnc3c(-c4cc(Cl)cc(Cl)c4)cccc23)CN1 [Example 77] | > 8,5 |
| O=C(N[C@H]1CCc2ccccc21)c1cnc2c(-c3cc(Cl)cc(Cl)c3)cccc2c1N1CCC[C@H]1C(=O)O [Example 80] | > 8,5 |
| CN(C)c1c(C(=O)N[C@H]2CCOc3ccccc32)cnc2c(-c3ccc(F)c(F)c3F)cccc12 [Example 81] | > 8,5 |

| Compound | pE50 (negative decadic logarithm of EC50) |
| --- | --- |
| O=C(N[C@H]1CCOc2ccccc21)c1cnc2c(-c3ccc(F)c(F)c3F)cccc2c1N1CCOCC1 [Example 82] | > 8,5 |
| O=C(N[C@H]1CCOc2ccccc21)c1cnc2c(-c3cccc(OC(F)(F)F)c3F)cccc2c1N1CCOCC1 [Example 83] | > 8,5 |
| O=C(N[C@H]1CCc2ccccc21)c1cnc2c(-c3cc(Cl)cc(Cl)c3)cccc2c1N1CCc2ccccc2C1 [Example 85] | 5,3-6,5 |
| CC(C)CN(C)c1c(C(=O)N[C@H]2CCc3ccccc32)cnc2c(-c3cc(Cl)cc(Cl)c3)cccc12 [Example 87] | 5,3-6,5 |
| CN(C)CCNc1c(C(=O)N[C@H]2CCc3ccccc32)cnc2c(-c3cc(Cl)cc(Cl)c3)cccc12 [Example 88] | 5,3-6,5 |
| COCCNc1c(C(=O)N[C@H]2CCc3ccccc32)cnc2c(-c3cc(Cl)cc(Cl)c3)cccc12 [Example 89] | > 8,5 |
| CCN(CCOC)c1c(C(=O)N[C@H]2CCc3ccccc32)cnc2c(-c3cc(Cl)cc(Cl)c3)cccc12 [Example 90] | 7,5-8,5 |
| COCCN(CCOC)c1c(C(=O)N[C@H]2CCc3ccccc32)cnc2c(-c3cc(Cl)cc(Cl)c3)cccc12 [Example 93] | 7,5-8,5 |
| O=C(N[C@H]1CCc2ccccc21)c1cnc2c(-c3cc(Cl)cc(Cl)c3)cccc2c1NC1CCOCC1 [Example 95] | 6,5-7,5 |
| O=C(N[C@H]1CCc2ccccc21)c1cnc2c(-c3cc(Cl)cc(Cl)c3)cccc2c1NN1CCOCC1 [Example 98] | 7,5-8,5 |
| O=C(N[C@H]1CCc2ccccc21)c1cnc2c(-c3cc(Cl)cc(Cl)c3)cccc2c1NCCO [Example 100] | > 8,5 |
| O=C(N[C@H]1CCc2ccccc21)c1cnc2c(-c3cc(Cl)cc(Cl)c3)cccc2c1N1CC[C@@H](O)C1 [Example 101] | > 8,5 |
| O=C(N[C@H]1CCc2ccccc21)c1cnc2c(-c3cc(Cl)cc(Cl)c3)cccc2c1N1CCCO1 [Example 108] | > 8,5 |
| C[C@H]1Cc2ccccc2N1c1c(C(=O)N[C@H]2CCc3ccccc32)cnc2c(-c3cc(Cl)cc(Cl)c3)cccc12 [Example 109] | 5,3-6,5 |
| CN(CC(F)(F)F)c1c(C(=O)N[C@H]2CCc3ccccc32)cnc2c(-c3cc(Cl)cc(Cl)c3)cccc12 [Example 110] | 7,5-8,5 |
| O=C(N[C@H]1CCc2ccccc21)c1cnc2c(-c3cc(Cl)cc(Cl)c3)cccc2c1N1CCC(F)(F)C1 [Example 112] | > 8,5 |
| CN(CCC(N)=O)c1c(C(=O)N[C@H]2CCc3ccccc32)cnc2c(-c3cc(Cl)cc(Cl)c3)cccc12 [Example 115] | > 8,5 |
| O=C(N[C@H]1CCc2ccccc21)c1cnc2c(-c3cc(Cl)cc(Cl)c3)cccc2c1N1CCS(=O)(=O)CC1 [Example 117] | 7,5-8,5 |
| O=C(N[C@H]1CCc2ccccc21)c1cnc2c(-c3cc(Cl)cc(Cl)c3)cccc2c1N1CC(F)(F)C1 [Example 121] | > 8,5 |
| CN(C)C(=O)CCNc1c(C(=O)N[C@H]2CCc3ccccc32)cnc2c(-c3cc(Cl)cc(Cl)c3)cccc12 [Example 122] | 6,5-7,5 |
| NC(=O)CCNc1c(C(=O)N[C@H]2CCc3ccccc32)cnc2c(-c3cc(Cl)cc(Cl)c3)cccc12 [Example 124] | 7,5-8,5 |

| Compound | pE50 (negative decadic logarithm of EC50) |
| --- | --- |
| O=C(N[C@H]1CCc2ccccc21)c1cnc2c(-c3cc(Cl)cc(Cl)c3)cccc2c1NCCn1cccn1 [Example 125] | 6,5-7,5 |
| C[C@H](Nc1c(C(=O)N[C@H]2CCc3ccccc32)cnc2c(-c3cc(Cl)cc(Cl)c3)cccc12)C(N)=O [Example 127] | 7,5-8,5 |
| COC(=O)CNc1c(C(=O)N[C@H]2CCc3ccccc32)cnc2c(-c3cc(Cl)cc(Cl)c3)cccc12 [Example 128] | 7,5-8,5 |
| NC(=O)CNc1c(C(=O)N[C@H]2CCc3ccccc32)cnc2c(-c3cc(Cl)cc(Cl)c3)cccc12 [Example 129] | 6,5-7,5 |
| CONc1c(C(=O)N[C@H]2CCOc3ccccc32)cnc2c(-c3cc(Cl)cc(Cl)c3)cccc12 [Example 131] | 5,3-6,5 |
| CN(C)c1c(C(=O)N[C@H]2CCOc3ccccc32)cnc2c(-c3cc(Cl)cc(Cl)c3Cl)cccc12 [Example 132] | > 8,5 |
| O=C(N[C@H]1CCOc2ccccc21)c1cnc2c(-c3cc(Cl)cc(Cl)c3Cl)cccc2c1N1CCOCC1 [Example 133] | > 8,5 |
| O=C(N[C@H]1CCOc2ccccc21)c1cnc2c(-c3cc(Cl)cc(Cl)c3)cccc2c1Nc1ccncc1 [Example 136] | 6,5-7,5 |
| CN(CCO)c1c(C(=O)N[C@H]2CCOc3ccccc32)cnc2c(-c3cc(Cl)cc(Cl)c3)cccc12 [Example 138] | > 8,5 |
| CN(C)c1c(C(=O)N[C@H]2CCOc3ccccc32)cnc2c(-c3ccc(Cl)c(Cl)c3)c(F)ccc12 [Example 139] | > 8,5 |
| O=C(N[C@H]1CCOc2ccccc21)c1cnc2c(-c3ccc(Cl)c(Cl)c3)cc(F)cc2c1N1CCOCC1 [Example 144] | 7,5-8,5 |
| CN(C)c1c(C(=O)N[C@H]2CCOc3ccccc32)cnc2c(-c3ccc(Cl)c(Cl)c3)cc(F)cc12 [Example 145] | 7,5-8,5 |
| CN(C)c1c(C(=O)N[C@H]2CCOc3ccccc32)cnc2c(-c3cccc(Cl)c3Cl)cc(F)cc12 [Example 146] | > 8,5 |
| COc1ccc2c(c1)[C@@H](NC(=O)c1cnc3c(-c4cc(Cl)cc(Cl)c4)cccc3c1N(C)C)CCO2 [Example 147] | 7,5-8,5 |
| CN(C)c1c(F)ccc(-c2cccc3c(N(C)C)c(C(=O)N[C@H]4CCOc5ccccc54)cnc23)c1F [Example 151] | > 8,5 |
| CN(C)c1c(C(=O)N[C@H]2CCOc3cc(F)ccc32)cnc2c(-c3cc(Cl)cc(Cl)c3)cccc12 [Example 152] | 7,5-8,5 |
| CC(=O)NNc1c(C(=O)N[C@H]2CCOc3ccccc32)cnc2c(-c3cc(Cl)cc(Cl)c3)cccc12 [Example 154] | 7,5-8,5 |
| O=C(N[C@H]1CCOc2ccccc21)c1cnc2c(-c3cccc(Cl)c3F)c(F)ccc2c1N1CCOCC1 [Example 155] | > 8,5 |
| O=C(N[C@H]1CCOc2ccccc21)c1cnc2c(-c3ccc(Cl)c(Cl)c3)c(F)ccc2c1N1CCOCC1 [Example 156] | > 8,5 |
